Measured values as given in PubChem BioAssay AID485360 (National Center for Advancing Translational Sciences (NCATS), 2010).
Hit rate of the full screen: of about 230,000 compounds, about 1,500 (0.65%) were called active. Inconclusive results, whose numbers are uncertain, are shown with a selection of clear calls. Calls come from the whole dose curve; as a rule, active = well fitted inhibition curve with a large enough effect; inconclusive = small, poorly fitted or top-dose-only effect; inactive = no such curve, though single readings can be large or run the other way. Where the call is inconclusive, the potency comes from a doubtful curve fit.

The molecules below were run against Lethal(3)malignant brain tumor-like protein 1 (Homo sapiens) (UniProt Q9Y468) (assay: qHTS Assay for the Inhibitors of L3MBTL1). Details: AlphaScreen L3MBTL1–H3K9me1 peptide binding; activity, negative = inhibition: at 57.1 µM (top of the series).
Procedure, shortened: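 Read-out is AlphaScreen signal from streptavidin donor and nickel chelate acceptor beads (10 ug/mL final each) bridging L3MBTL1 (50 nM) and biotinylated K9-monomethylated H3(1-15) peptide (75 nM), after 30 min compound exposure at room temperature.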
% is set by controls: 0 for no effect and ±100 for the full control effect; potency is the fitted concentration of half-maximal effect; tags give direction and shape of the fitted curve.
Note: nearly all actives have a fitted effect of over 60% in size.

Sequence of UniProt Q9Y468 (Q9Y468 whole entry, looked up): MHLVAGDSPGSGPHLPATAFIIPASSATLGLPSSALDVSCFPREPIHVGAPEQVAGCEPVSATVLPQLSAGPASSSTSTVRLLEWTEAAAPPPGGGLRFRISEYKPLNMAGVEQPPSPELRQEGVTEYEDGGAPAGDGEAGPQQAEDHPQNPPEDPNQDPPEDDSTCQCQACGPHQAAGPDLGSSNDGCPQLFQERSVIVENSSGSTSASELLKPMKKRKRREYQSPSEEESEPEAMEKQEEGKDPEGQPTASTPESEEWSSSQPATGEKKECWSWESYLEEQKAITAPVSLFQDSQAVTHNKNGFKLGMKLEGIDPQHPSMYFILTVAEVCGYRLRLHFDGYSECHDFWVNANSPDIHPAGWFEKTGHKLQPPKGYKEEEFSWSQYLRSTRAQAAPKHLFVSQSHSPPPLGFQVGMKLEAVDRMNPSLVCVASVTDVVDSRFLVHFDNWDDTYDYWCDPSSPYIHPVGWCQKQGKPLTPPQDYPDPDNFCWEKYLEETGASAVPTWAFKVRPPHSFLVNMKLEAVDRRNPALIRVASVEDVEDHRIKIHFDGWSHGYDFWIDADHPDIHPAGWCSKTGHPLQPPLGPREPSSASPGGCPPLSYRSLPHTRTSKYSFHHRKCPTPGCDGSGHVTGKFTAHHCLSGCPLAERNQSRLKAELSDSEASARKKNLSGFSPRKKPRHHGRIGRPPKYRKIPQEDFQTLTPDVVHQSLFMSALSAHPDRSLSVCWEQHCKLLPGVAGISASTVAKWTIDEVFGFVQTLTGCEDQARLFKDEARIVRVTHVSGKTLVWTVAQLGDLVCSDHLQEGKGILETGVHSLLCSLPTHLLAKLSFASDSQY

| Structure (SMILES) | activity, negative = inhibition | Potency |
| --- | --- | --- |
| C[C@@H]1O[C@@H](Oc2c(-c3cc(O)c(O)c(O)c3)oc3cc(O)cc(O)c3c2=O)[C@H](O)[C@H](O)[C@H]1O | inconclusive: -97.7% [inhibitor] |  |
| CCN(CC)c1ccc(/C=N/NC(=S)NCc2ccccc2)c(O)c1 |  | inactive |
| COc1ccc(OC)c(N=Cc2c(O)[nH]c3ccccc23)c1 |  | inconclusive: 4.47 µM [inhibitor, single point] |
| Cn1c(=O)c(C(=O)COC(=O)c2cc(-c3ccco3)nc3ccccc23)c(N)n(Cc2ccccc2)c1=O | inconclusive: -97.1% [inhibitor] |  |
| Oc1c(Br)cc(/C=N/NC(=S)NCc2ccco2)cc1Br |  | inconclusive: 25.1 µM [inhibitor, single point] |
| COc1ccc(-c2nc3n(n2)C(=O)CC(c2ccco2)S3)cc1 (stereo unspecified) |  | inconclusive: 35.5 µM [inhibitor, single point] |
| CCC(=O)NC(c1ccccc1OC)c1ccc2cccnc2c1O (stereo unspecified) |  | inconclusive: 39.8 µM [inhibitor, single point] |
| Cc1cccc(N/C(N)=N/c2nc(C(F)(F)F)cc(=O)[nH]2)c1C |  | inactive |
| COc1cc2c(cc1OC)-c1cc(NCc3ccccn3)nc(=O)n1CC2 |  | inconclusive: 28.2 µM [inhibitor, single point] |
| O=C(CNC(=O)c1cc(Cl)cc([N+](=O)[O-])c1)NC1CC1 |  | inactive |
| COc1ccc(C(C)=O)cc1CSCCC(=O)O |  | inactive |
| CCC1=NN(C(=O)c2ccccc2O)C(O)(c2ccccc2)C1 (stereo unspecified) |  | inconclusive: 14.1 µM [inhibitor, partial curve] |
| CCN1C(=O)S/C(=C/c2ccc(Sc3nc4ccccc4[nH]3)o2)C1=O |  | inactive |
| c1ccc(-c2nc(NCC3CCCO3)c3ccccc3n2)nc1 (stereo unspecified) |  | inactive |
| O=S(=O)(NCc1ccccn1)c1ccccn1 |  | inconclusive: 6.31 µM [inhibitor, single point] |
| Cc1ccc(S(=O)(=O)Nc2nc(C)c(NC(=O)Nc3ccc(Cl)cc3Cl)s2)cc1 |  | inactive |
| CCOC(=O)C1=CN(Cc2ccco2)S(=O)(=O)N(C)C1CC (stereo unspecified) |  | inconclusive: 22.4 µM [inhibitor, partial curve] |
| CCCCn1c(/C=N/Nc2nc3ccccc3[nH]2)nc2ccccc21 |  | inconclusive: 7.94 µM [inhibitor, partial curve] |
| COc1cc2c3c(c1)/C(=C1/SC(=S)NC1=O)C(=O)N3C(C)(C)C=C2C |  | inconclusive: 17.8 µM [inhibitor, partial curve] |
| CCn1c(=O)c(C(=O)CN2CCc3ccccc32)c(N)n(Cc2ccccc2)c1=O |  | inconclusive: 0.794 µM [inhibitor, single point] |
| CCC(COC(=O)c1ccccc1)Oc1cc(NCc2ccccc2)c2ncn(C(C)C)c2c1 (stereo unspecified) |  | inconclusive: 28.2 µM [inhibitor, single point] |
| Oc1ccc(COC2CCN(Cc3ccccc3)C2)c2cccnc12 (stereo unspecified) |  | inconclusive: 31.6 µM [inhibitor, single point] |
| COc1ccc(OCCNC(=S)Nc2cccc3ccccc23)cc1 |  | inactive |

| Structure (SMILES) | activity, negative = inhibition | Potency |
| --- | --- | --- |
| CCCCN1Cc2c(nc3cc(-c4ccco4)[nH]n3c2=O)C1=O |  | active: 28.2 µM |
| CC(C)(C)Nc1c(-c2ccc(O)cc2)nc2ccc(Cl)cn12 |  | inactive |
| CC1(O)CC(c2ccc(Cl)cc2)=NN1C(=O)c1ccc(Cl)cc1 (stereo unspecified) |  | inconclusive: 28.2 µM [inhibitor, single point] |
| CC1CN(CC(=O)Nc2cc(S(=O)(=O)N3CCCC3)ccc2Cl)CC(C)O1 (stereo unspecified) |  | inactive |
| Cc1ccc(S(=O)(=O)N(CC(=O)N2CCOCC2)CC(=O)N2CCOCC2)cc1 |  | inconclusive: 0.501 µM [inhibitor, full curve, poor fit] |
| O=C(COC(=O)c1ccc([N+](=O)[O-])o1)Nc1ncc(Cl)cc1Cl |  | inconclusive: 31.6 µM [inhibitor, single point] |
| N#Cc1cn(CCOc2ccccc2F)c2ccccc12 |  | inactive |
| COc1ccc2[nH]cc(C(O)CN3CCN(c4ccccc4F)CC3)c2c1 (stereo unspecified) |  | inconclusive: 28.2 µM [inhibitor, partial curve] |
| Cc1ccc([N+](=O)[O-])cc1NC(=O)c1cccs1 |  | inconclusive: 0.126 µM [inhibitor, full curve, poor fit] |
| O=C(COC(=O)c1nc(Cl)ccc1Cl)c1ccc[nH]1 |  | inconclusive: 0.708 µM [inhibitor, single point] |
| COc1ccc(-c2sc3ccccc3c2-c2ccc(O)cc2)cc1 |  | inactive |
| C=CCc1cc(/C=C/c2nc(O)c([N+](=O)[O-])c(=O)[nH]2)cc(OC)c1O |  | inconclusive: 28.2 µM [inhibitor, single point] |
| O=C(CC1C(=O)NCCN1Cc1c(F)cccc1Cl)NC1CCCC1 (stereo unspecified) |  | inactive |
| COC(=O)COc1ccccc1/C=C1/NC(=O)NC1=O |  | inactive |
| CC(C)(O)C(O)COc1c2ccoc2cc2oc(=O)ccc12 (stereo unspecified) |  | inconclusive: 39.8 µM [inhibitor, single point] |
| CN(C(=O)NC(=O)C1=C(N2CCOCC2)/C(=C/c2ccccc2)CC1)S(C)(=O)=O |  | inactive |
| COc1ccc(NCc2ccc([N+](=O)[O-])s2)c(OC)c1 |  | inconclusive: 39.8 µM [inhibitor, single point] |
| O=C(CSc1nc2ccccc2c(=O)n1-c1ccccc1)NC(=O)CN1CCCC1=O |  | inconclusive: 22.4 µM [inhibitor, single point] |
| N#C/C(=C\c1ccc(C(=O)O)cc1)c1nc2sc3c(c2c(=O)[nH]1)CCCC3 |  | active: 22.4 µM |
| CC(=O)NCc1ccc(S(=O)(=O)NC(C(=O)O)C(C)C)cc1 (stereo unspecified) |  | inactive |
| Cc1c(/C=N/NC(=O)c2ccccc2O)c2ccccn2c1C(=O)c1ccc(F)cc1 |  | inconclusive: 0.708 µM [inhibitor, single point] |
| C=CCN(c1ccccc1OC)S(=O)(=O)c1ccc(Cl)c(C(=O)Nc2ccc(N3CCOCC3)cc2)c1 |  | inconclusive: 14.1 µM [inhibitor, partial curve] |
| O=C(c1ccc([N+](=O)[O-])c(CS(=O)(=O)c2ccc(Cl)cc2)c1)N1CCCCC1 |  | inconclusive: 0.1 µM [inhibitor, full curve, poor fit] |
